Assay results from PubChem BioAssay AID360 (National Center for Advancing Translational Sciences (NCATS), 2006).
In all, about 48,000 compounds went through this assay and about 550 (1.1%) were called active. Another 4% or so got no clear call; they are omitted. No stated cut-off is given here; in the data, active means potency below about 15 µM; inconclusive means mostly about 16 µM to 33 µM; inactive means weaker than that. The list shows a part of the results.

Biological target: Lysosomal acid glucosylceramidase (Homo sapiens) (UniProt P04062)
Experiment: Glucocerebrosidase;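 further: the screen sought inhibitors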
Details: purified enzyme, resorufin glucoside fluorescence (screen aimed at inhibitors), 20 min
Method in brief: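 Compounds titrated against 0.2 nM normal enzyme, 30 uM resorufin beta-D-glucopyranoside substrate, citrate/phosphate buffer with taurocholate and tween-20, pH 5.9. Reaction ran 20 min at room temperature; fluorescence (Ex 548/Em 600) gave AC50.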
Potency means the concentration at half of the fitted maximal effect.

Chain of UniProt P04062 (P04062 whole entry, looked up): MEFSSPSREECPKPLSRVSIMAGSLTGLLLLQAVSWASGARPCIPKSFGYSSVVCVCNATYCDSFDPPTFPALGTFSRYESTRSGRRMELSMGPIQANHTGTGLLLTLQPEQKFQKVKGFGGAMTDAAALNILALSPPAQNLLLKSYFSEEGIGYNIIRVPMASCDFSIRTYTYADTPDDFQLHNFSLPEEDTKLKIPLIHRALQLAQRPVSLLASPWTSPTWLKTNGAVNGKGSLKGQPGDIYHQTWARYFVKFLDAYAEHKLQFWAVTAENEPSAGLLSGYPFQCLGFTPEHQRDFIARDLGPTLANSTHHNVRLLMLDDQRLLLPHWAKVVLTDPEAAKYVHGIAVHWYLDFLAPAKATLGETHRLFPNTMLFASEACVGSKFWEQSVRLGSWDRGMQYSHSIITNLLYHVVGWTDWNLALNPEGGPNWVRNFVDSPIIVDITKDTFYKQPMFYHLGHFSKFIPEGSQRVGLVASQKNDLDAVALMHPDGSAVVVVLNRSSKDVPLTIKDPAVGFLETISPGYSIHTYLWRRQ

| SMILES | Potency |
| --- | --- |
| CCCCOC(=O)c1ccc(NC(=O)c2ccoc2C)cc1 | inactive: > 76.9 µM |
| CCCN1CCN(CCCNC(=O)Cn2nc(-c3ccc(C)cc3)ccc2=O)CC1 | inactive: > 76.9 µM |
| CC(=O)NCC(=O)N(c1ccccc1)C1(C(=O)NC2CCCCC2)CCCCC1 | inactive: > 76.9 µM |
| CCOc1ccc(OCC(=O)Nc2ccc(S(=O)(=O)Nc3cc(C)nc(C)n3)cc2)cc1 | inactive: > 76.9 µM |
| CCOC(=O)CNC(=O)CSc1nnc(-c2cccc(C)c2)n1-c1ccc(OC)cc1 | inactive: > 76.9 µM |
| COc1ccc(C2=NOC(C(=O)NCc3ccc(F)cc3)C2)cc1 (stereo unspecified) | inactive: > 76.9 µM |
| COc1ccccc1N1CCN(S(=O)(=O)Cc2ccccc2Cl)CC1 | inactive: > 76.9 µM |
| CCCC1CCC(c2nc(-c3cccnc3)no2)CC1 (stereo unspecified) | inactive: > 76.9 µM |
| Nn1c(SCC(=O)Nc2ccc(F)cc2)nnc1-c1cccnc1 | inactive: > 76.9 µM |
| CCCc1ccc(OCc2ccc(C(=O)OC)o2)c(OC)c1 | inactive: > 76.9 µM |
| CCCc1nc2ccccc2c(=O)n1/N=C/c1ccc(O)cc1O | inactive: > 76.9 µM |
| COc1cc(C2NC(=O)NC(O)(C(F)(F)F)C2C(=O)c2cccs2)ccc1O (stereo unspecified) | inactive: > 76.9 µM |
| CCOC(=O)N1CCN(C(=O)CSc2ccccc2)CC1 | inactive: > 76.9 µM |
| Cc1cccc(N2CCN(C(=O)Cn3ccc4ccccc4c3=O)CC2)c1C | inactive: > 76.9 µM |
| CC(=O)C1=C(C)Nc2ncnn2C1c1ccc(Cl)cc1 (stereo unspecified) | inactive: > 76.9 µM |
| COc1ccc(CN2C(=O)[C@@H]3C(c4ccc(F)cc4)=NO[C@@H]3C2=O)cc1 | inactive: > 76.9 µM |
| CCOC(=O)c1[nH]cnc1C(=O)O | inactive: > 76.9 µM |
| O=C(CN(C(=O)CCC(=O)Nc1nccs1)c1ccc2c(c1)OCCO2)NCc1ccco1 | inactive: > 76.9 µM |
| Cc1ccc(C)n1NC(=O)c1ccccc1Cl | inactive: > 76.9 µM |
| O=C(C1=COCCO1)N1CCN(S(=O)(=O)c2cccc(Cl)c2Cl)CC1 | inactive: > 76.9 µM |
| Cc1nn(C(=O)c2ccccc2)c2c1C(=O)CC(C)(C)C2 | inactive: > 76.9 µM |
| Cc1ccc(C(=O)N(CN2CCCC2=O)c2ccc(F)cc2)cc1 | inactive: > 76.9 µM |
| CCOC(=O)C1CCN(C(=O)c2sc3nc(-c4ccc(F)cc4)cn3c2C)CC1 | inactive |

| SMILES | Potency |
| --- | --- |
| COCCNC(=O)c1ccc2c(=O)n(CCOC)c(=O)[nH]c2c1 | inactive: > 76.9 µM |
| COc1ccc(N(CC(=O)Nc2ccc3c(c2)OCCO3)S(C)(=O)=O)c(OC)c1 | inactive: > 76.9 µM |
| C=CCOc1ccc(C2C(C(=O)c3ccco3)=C(O)C(=O)N2Cc2cccnc2)cc1 (stereo unspecified) | inactive: > 76.9 µM |
| Cn1c(C(=O)N2CCCc3ccccc32)cc2sccc21 | inactive: > 76.9 µM |
| CC1=C(C(=O)Nc2ccccn2)C(c2cccnc2)n2nnnc2N1 (stereo unspecified) | inactive: > 76.9 µM |
| CC(C)(C)N(Cc1cc2ccccc2[nH]c1=O)C(=O)C1CCCCC1 | inactive: > 76.9 µM |
| COCCNC(=O)C(c1ccncc1)N(C(=O)Cn1nnc2ccccc21)c1ccc(OC)cc1 (stereo unspecified) | inactive: > 76.9 µM |
| CC(C)Cn1c(N)c(C(=O)CSc2ccc3c(c2)OCCO3)c(=O)n(C)c1=O | inactive: > 76.9 µM |
| O=C(C1CCN(C2CC(=O)N(c3ccc(F)cc3)C2=O)CC1)N1CCOCC1 (stereo unspecified) | inactive: > 76.9 µM |
| Cc1ccc(OCC(=O)Nc2ccc(-c3nc4ncccc4o3)cc2)c(C)c1 | inactive: > 76.9 µM |
| CCC(=O)Nc1ccc2c(c1)nc1n2CCSC1 | inactive: > 76.9 µM |
| COc1ccc(NS(=O)(=O)c2ccc3c(c2)CCC(=O)N3)c(OC)c1 | inactive: > 76.9 µM |
| O=C(CSc1nnnn1C1CCCC1)N1CCCc2ccccc21 | inactive: > 76.9 µM |
| O=C(CCSCCC(=O)N1CCCC1)N1CCCC1 | inactive: > 76.9 µM |
| O=C(Nc1ccc(-c2nnc(-c3ccccc3)o2)cc1)C1CCCO1 (stereo unspecified) | inactive: > 76.9 µM |
| COc1ccc(C2C(C(=O)O)c3ccccc3C(=O)N2C)cc1Br (stereo unspecified) | inactive: > 76.9 µM |
| COc1cccc(-c2nn(-c3ccccc3)cc2CO)c1 | inactive: > 76.9 µM |
| CCOc1cc(-c2cc(-c3ccc(N)cc3)nc(N)c2C#N)ccc1O | inactive: > 76.9 µM |
| COc1cc(NC(=O)c2ccco2)c(OC)cc1NC(=O)CSc1nnc(-c2cccs2)n1C | inactive: > 76.9 µM |
| CCc1ccc2nc(NC(=O)c3cc(C)on3)sc2c1 | inactive: > 76.9 µM |
| COC(=O)c1ccccc1NC(=O)c1cc2n(n1)C(C(F)F)CC(C(F)F)N2 (stereo unspecified) | inactive: > 76.9 µM |
| Cc1cc(C(=O)NCc2ccccc2)no1 | inactive: > 76.9 µM |
| Cc1ccc(S(=O)(=O)Cn2nnnc2C(CC(C)C)N2CCN(c3ccc(F)cc3)CC2)cc1 (stereo unspecified) | inactive: > 76.9 µM |

| SMILES | Potency |
| --- | --- |
| Cc1cnc(C(=O)OCC(=O)N2CCc3ccccc3C2)cn1 | inactive: > 76.9 µM |
| O=S(=O)(NCC(c1cccnc1)N1CCN(c2ccc(F)cc2)CC1)c1cc(F)ccc1F (stereo unspecified) | inactive: > 76.9 µM |
| CCOC(=O)C1CCN(C(=O)Cc2c(C(=O)O)n(C)c3ccccc23)CC1 | inactive: > 76.9 µM |
| Cc1ccccc1C(=O)NC1CCN(Cc2nnnn2CCc2ccccc2)CC1 | inactive: > 76.9 µM |
| COC(=O)c1cccc(C(=O)Nc2cnc3ccccc3c2)n1 | inactive: > 76.9 µM |
| CCn1c(CNc2ccc(F)cc2)nnc1SCC(=O)N1CCCc2ccccc21 | inactive: > 76.9 µM |
| CCCCNC(=O)C(NS(=O)(=O)c1cccc2nsnc12)c1ccccc1 (stereo unspecified) | inactive: > 76.9 µM |
| CCC(=O)Nc1ccc(-c2nn3c(C)nnc3s2)cc1 | inactive: > 76.9 µM |
| CCC(=O)N1CCN(c2ccccc2NC(=O)COc2cccc(C)c2)CC1 | inactive: > 76.9 µM |
| CC(C)C(=O)Nc1ccc(C(=O)NCc2cccnc2)cc1 | inactive |
| COc1ccc(CNC(=O)Cc2ccc(OC)c(S(=O)(=O)N3CCOCC3)c2)cc1 | inactive: > 76.9 µM |
| COc1ccccc1/C=c1\sc2nc(-c3ccncc3)nn2c1=O | inactive: > 76.9 µM |
| CCOc1ccc(OCC)c(NC(=O)CSCC(=O)O)c1 | inactive: > 76.9 µM |
| COc1ccc(NC(=O)c2c(-c3ccccc3Cl)noc2C)c(OC)c1 | inactive: > 76.9 µM |
| COc1ccc(-c2nc(SC)n(S(=O)(=O)c3ccccc3)n2)cc1 | inactive: > 76.9 µM |
| Cc1cc(C)n2nc(SCC(=O)c3ccccc3)nc2n1 | inactive: > 76.9 µM |
| CCn1c(CCNC(=O)c2ccc(Cl)cc2)nnc1SCC(=O)NC1CCCC1 | inactive: > 76.9 µM |
| Cn1ncc2c(N3CCOCC3)ncnc21 | inactive: > 76.9 µM |
| COc1ccc(-c2csc(N3CCC(C(N)=O)(N4CCCCC4)CC3)n2)cc1 | inactive: > 76.9 µM |
| CCOC(=O)c1[nH]cc(-c2ccccc2)c1N1CCOCC1 | inactive: > 76.9 µM |
| CCn1c(SCC(=O)N2CCCc3ccccc32)nc2cccnc21 | inactive: > 76.9 µM |
| OCCN(Cc1ccccc1)Cc1cccc(C(F)(F)F)c1 | inactive |
| CCC(C)(C)n1nnnc1C(c1cc2ccc(C)cc2[nH]c1=O)N(Cc1cccnc1)Cc1ccco1 (stereo unspecified) | inactive |

| SMILES | Potency |
| --- | --- |
| CC(=O)Nc1ccn(-c2ccccc2)n1 | inactive: > 76.9 µM |
| O=C(O)CCCCCNc1nc(=S)[nH]c2ccccc12 | active: 7.73 µM |
| Cc1nnc(N2CCN(Cc3ccccc3)CC2)[nH]c1=O | inactive: > 76.9 µM |
| CCCn1nnc(NC(=O)c2ccc(Cl)cc2Cl)n1 | inactive: > 76.9 µM |
| Cc1ccc(OCc2nnc(SCCN3CCOCC3)n2C)cc1 | inactive: > 76.9 µM |
| Cc1cc(NC(=O)c2ccc3c(c2)C(=O)N(CCC(C)C)C3=O)no1 | inactive: > 76.9 µM |
| c1ccc2c(c1)oc1c(NCCCN3CCOCC3)ncnc12 | inactive: > 76.9 µM |
| Cc1ccc(C)c(/C(O)=C2\C(=O)C(=O)N(CCCn3ccnc3)C2c2ccncc2)c1 (stereo unspecified) | inactive: > 76.9 µM |
| Cn1c(SCc2nc3ccccc3[nH]2)nnc1-c1ccccn1 | inactive: > 76.9 µM |
| Cc1cccc(NC(=O)C2CCN(S(=O)(=O)c3cccs3)CC2)n1 | inactive: > 76.9 µM |
| CCOc1ccc2[nH]c(C)c(CN3CCN(CC)CC3)c(=O)c2c1 | inactive: > 76.9 µM |
| O=C(C1CCC(C(=O)N2CCc3ccccc32)CC1)N1CCc2ccccc21 (stereo unspecified) | inactive: > 76.9 µM |
| COc1cc(C(=O)OCC(=O)Nc2cc(C)on2)ccc1OCc1ccccc1Cl | inactive: > 76.9 µM |
| CCOC(=O)c1c(C)[nH]c(C(=O)OCC(=O)N2CC(C)OC(C)C2)c1C (stereo unspecified) | inactive: > 76.9 µM |
| Cc1ccc(C(=O)CSc2ccccn2)cc1 | inactive: > 76.9 µM |
| COc1ccc(-n2c(=O)c3c4c(sc3n3c(C)nnc23)COC(C(C)C)C4)cc1 (stereo unspecified) | inactive: > 76.9 µM |
| CCCCn1c(SCc2c(C)noc2C)nc2cc(S(N)(=O)=O)ccc21 | inactive: > 76.9 µM |
| OCCn1nc2c3ccccc3nc-2n(-c2ccccc2)c1=S | inactive: > 76.9 µM |
| CCS(=O)(=O)c1ccc2oc(SCC(=O)c3ccco3)nc2c1 | inactive: > 76.9 µM |
| O=C(NCCCNC1CCCCC1)c1ccc(/C=N/O)nc1 | inactive: > 76.9 µM |
| Cc1cccc(-n2nnc(C(=O)NCc3ccccc3)c2N)c1 | inactive: > 76.9 µM |
| COC(=O)c1ccccc1NC(=O)CSc1nnc(Cc2ccc(Cl)cc2)o1 | inactive: > 76.9 µM |
